Assay results reported in the supplement of paper PMC4967469.
Lines with a small IC50 respond at low doses; a fit beyond the top or the lowest dose is shown as a bound at that dose. The AUC spans the tested range (256-fold, ending at the top dose) of the same fit: 1 means no effect, lower means more sensitive. For part of these data: The top dose, if marked as inferred, comes from the curve model; the source does not state it.

Experiments:
Test in all cases: Viability of human cancer cell lines after 72 h of drug (GDSC screen)
Bexarotene = compound: C=C(c1ccc(C(=O)O)cc1)c1cc2c(cc1C)C(C)(C)CCC2(C)C [Bexarotene]; settings: top dose 8 µM
Method: (§1)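 Human cancer cell lines in 384-well plates, medium with 10% serum, drug for 72 h over a 256-fold dose range (nine 2-fold or five 4-fold steps up to the top dose). Adherent lines were fixed and stained with the nucleic acid dye Syto60, suspension lines read with resazurin; signal relative to control wells, capped at 0 and 100%. One two-parameter sigmoid per drug and line, fitted in a mixed model over all curves with the slope shared within a line.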

NPK76-II-72-1 = compound: COc1cc(C(=O)NC2CCN(C)CC2)ccc1Nc1ncc2c(n1)N(C1CCCC1)C(C)CC(=O)N2C [NPK76-II-72-1]; settings: top dose 10.24 µM; top dose inferred
Method: as §1

Etoposide = compound: COc1cc([C@@H]2c3cc4c(cc3[C@@H](O[C@@H]3O[C@@H]5CO[C@@H](C)O[C@H]5[C@H](O)[C@H]3O)[C@H]3COC(=O)[C@H]23)OCO4)cc(OC)c1O [Etoposide]; settings: top dose 16 µM
Method: as §1

YK 4-279 = compound: COc1ccc(C(=O)CC2(O)C(=O)Nc3c(Cl)ccc(Cl)c32)cc1 [YK 4-279]; settings: top dose 10 µM
Method: as §1

BMS-345541 = compound: Cc1ccc2nc(NCCN)c3ncc(C)n3c2c1 [BMS-345541]; settings: top dose 16 µM
Method: as §1

AZD7762 = compound: NC(=O)Nc1cc(-c2cccc(F)c2)sc1C(=O)N[C@H]1CCCNC1 [AZD7762]; settings: top dose 2 µM
Method: as §1

GSK-650394 = compound: O=C(O)c1ccc(-c2c[nH]c3ncc(-c4ccccc4)cc23)cc1C1CCCC1 [GSK-650394]; settings: top dose 16 µM; top dose inferred
Method: as §1

XAV 939 = compound: Oc1nc(-c2ccc(C(F)(F)F)cc2)nc2c1CSCC2 [XAV 939]; settings: top dose 5 µM; top dose inferred
Method: as §1

Cell Line	AUC (Bexarotene)	IC50 (Bexarotene) [µM]	AUC (NPK76-II-72-1)	IC50 (NPK76-II-72-1) [µM]	AUC (Etoposide)	IC50 (Etoposide) [µM]	AUC (YK 4-279)	IC50 (YK 4-279) [µM]	AUC (BMS-345541)	IC50 (BMS-345541) [µM]	AUC (AZD7762)	IC50 (AZD7762) [µM]	AUC (GSK-650394)	IC50 (GSK-650394) [µM]	AUC (XAV 939)	IC50 (XAV 939) [µM]
SK-N-FI (neuroblastoma, adherent)	0.98	> 8	0.951	> 10.2	0.982	> 16	0.752	3.29	0.867	14.2	0.801	0.965	0.989	> 16	0.986	> 5
SK-N-SH (neuroblastoma, adherent)	0.922	> 8	0.945	> 10.2	0.368	0.435	0.584	1.06	0.877	15.8	0.797	0.935	0.885	> 16	0.969	> 5
SK-OV-3 (ovary, adherent)	0.871	> 8	0.797	6.32	0.816	11.9	0.73	3.4	0.749	6.37	0.666	0.41	0.875	> 16	0.93	> 5
SK-PN-DW (Ewing sarcoma, adherent)	0.976	> 8	0.754	3.55	0.351	0.379	0.716	2.63	0.881	> 16	0.542	0.164	0.81	8.85	0.981	> 5
SK-UT-1 (soft tissue, adherent)	0.919	> 8	0.983	> 10.2	0.1	< 0.0625	0.644	1.5	0.899	> 16	0.596	0.224	0.654	2.56	0.938	> 5
SKG-IIIa (cervix, adherent)	0.946	> 8	0.98	> 10.2	0.876	> 16	0.842	> 10	0.976	> 16	0.737	0.767	0.966	> 16	0.959	> 5
SKN-3 (head and neck, adherent)	0.982	> 8	0.95	> 10.2	0.857	> 16	0.805	6.16	0.914	> 16	0.565	0.194	0.983	> 16	0.937	> 5
SLVL (B-cell lymphoma, suspension)	0.981	> 8	0.735	3.13	0.588	1.77	0.9	> 10	0.571	1.58	0.747	0.672	0.952	> 16	0.976	> 5
SNB75 (glioma, adherent)	0.732	3.17	0.976	> 10.2	0.786	10.7	0.702	3.05	0.866	> 16	0.833	> 2	0.935	> 16	0.949	> 5
SNG-M (endometrium, adherent)	0.89	> 8	0.656	1.71	0.512	1.08	0.597	1.15	0.907	> 16	0.47	0.104	0.594	–	0.849	3.64
SNU-423 (liver, adherent)	0.833	6.44	0.859	> 10.2	0.598	1.95	0.817	6.87	0.798	9.11	0.73	0.64	0.911	> 16	0.88	> 5
SNU-449 (liver, adherent)	0.986	> 8	0.98	> 10.2	0.876	> 16	0.877	> 10	0.853	14.4	0.923	> 2	0.838	12.3	0.94	> 5
SNU-C1 (large intestine, suspension)	0.944	> 8	0.98	> 10.2	0.951	> 16	0.932	> 10	0.875	> 16	0.654	0.408	0.969	> 16	0.976	> 5
SR (lymphoid neoplasm, suspension)	0.978	> 8	0.529	0.763	0.369	0.453	0.481	0.557	0.86	11.3	0.481	0.111	0.896	> 16	0.975	> 5
ST486 (Burkitt lymphoma, suspension)	0.882	6.79	0.723	2.51	0.633	2.22	0.721	2.42	0.689	3.15	0.684	0.381	0.689	3.14	0.975	> 5
SU8686 (pancreas, adherent)	0.942	> 8	0.967	> 10.2	0.759	6.26	0.852	9.22	0.94	> 16	0.665	0.382	0.804	9.18	0.95	> 5
SU-DHL-16 (B-cell lymphoma, suspension)	0.951	> 8	0.634	1.35	0.349	0.43	0.722	2.16	0.914	11.7	0.506	0.13	0.604	1.78	0.993	> 5
SUIT-2 (pancreas, adherent)	0.957	> 8	0.83	6.88	0.525	1.17	0.805	5.35	0.883	> 16	0.771	0.805	0.803	8.4	0.985	> 5
SUP-HD1 (Hodgkin lymphoma, suspension)	0.962	> 8	0.828	5.93	0.601	1.87	0.752	3.17	0.87	13.7	0.681	0.39	0.938	> 16	0.98	> 5
SUP-M2 (anaplastic large cell lymphoma, suspension)	0.992	> 8	0.845	4.94	0.361	0.456	0.632	1.32	0.902	12	0.417	0.0782	0.93	15.9	0.971	> 5
SUP-T1 (T-cell lymphoblastic leukaemia, suspension)	0.955	> 8	0.534	0.787	0.453	0.756	0.872	8.06	0.658	2.62	0.866	1.52	0.946	> 16	0.973	> 5
SW684 (fibrosarcoma, adherent)	0.981	> 8	0.983	> 10.2	0.884	> 16	0.879	> 10	0.979	> 16	0.976	> 2	0.982	> 16	0.98	> 5
SW756 (cervix, adherent)	0.906	> 8	0.984	> 10.2	0.676	3.43	0.717	2.92	0.982	> 16	0.35	0.044	0.975	> 16	0.967	> 5
SW780 (bladder, adherent)	0.981	> 8	0.979	> 10.2	0.811	9.43	0.704	2.5	0.942	> 16	0.831	1.42	0.986	> 16	0.866	> 5
SW962 (urogenital system, adherent)	0.865	> 8	0.912	> 10.2	0.82	12.2	0.703	2.71	0.944	> 16	0.849	> 2	0.913	> 16	0.892	> 5
SW982 (soft tissue, adherent)	0.907	> 8	0.897	> 10.2	0.147	0.0766	0.699	2.3	0.904	> 16	0.73	0.578	0.808	8.56	0.976	> 5
SW1417 (large intestine, adherent)	0.954	> 8	0.981	> 10.2	0.986	> 16	0.93	> 10	0.939	> 16	0.761	0.826	0.986	> 16	0.972	> 5
SW1710 (bladder, adherent)	0.952	> 8	0.908	> 10.2	0.364	0.415	0.696	2.26	0.905	> 16	0.761	0.73	0.567	1.53	0.958	> 5
